In PubChem BioAssay AID1347165 (National Center for Advancing Translational Sciences (NCATS), 2019):
Hit rate of the full screen: of about 220,000 compounds, about 5,700 (2.6%) were called active. Inconclusive results, whose numbers are uncertain, are shown with a selection of clear calls. Calls come from the whole dose curve; as a rule, active = well fitted inhibition curve with a large enough effect; inconclusive = small, poorly fitted or top-dose-only effect; inactive = no such curve, though single readings can be large or run the other way. Potencies beside an inconclusive call are fits to weak or partial responses and may not hold up.

Target: Lysine-specific demethylase 5B (Homo sapiens) (UniProt Q9UGL1)
Chain of UniProt Q9UGL1 (Q9UGL1 whole entry, looked up): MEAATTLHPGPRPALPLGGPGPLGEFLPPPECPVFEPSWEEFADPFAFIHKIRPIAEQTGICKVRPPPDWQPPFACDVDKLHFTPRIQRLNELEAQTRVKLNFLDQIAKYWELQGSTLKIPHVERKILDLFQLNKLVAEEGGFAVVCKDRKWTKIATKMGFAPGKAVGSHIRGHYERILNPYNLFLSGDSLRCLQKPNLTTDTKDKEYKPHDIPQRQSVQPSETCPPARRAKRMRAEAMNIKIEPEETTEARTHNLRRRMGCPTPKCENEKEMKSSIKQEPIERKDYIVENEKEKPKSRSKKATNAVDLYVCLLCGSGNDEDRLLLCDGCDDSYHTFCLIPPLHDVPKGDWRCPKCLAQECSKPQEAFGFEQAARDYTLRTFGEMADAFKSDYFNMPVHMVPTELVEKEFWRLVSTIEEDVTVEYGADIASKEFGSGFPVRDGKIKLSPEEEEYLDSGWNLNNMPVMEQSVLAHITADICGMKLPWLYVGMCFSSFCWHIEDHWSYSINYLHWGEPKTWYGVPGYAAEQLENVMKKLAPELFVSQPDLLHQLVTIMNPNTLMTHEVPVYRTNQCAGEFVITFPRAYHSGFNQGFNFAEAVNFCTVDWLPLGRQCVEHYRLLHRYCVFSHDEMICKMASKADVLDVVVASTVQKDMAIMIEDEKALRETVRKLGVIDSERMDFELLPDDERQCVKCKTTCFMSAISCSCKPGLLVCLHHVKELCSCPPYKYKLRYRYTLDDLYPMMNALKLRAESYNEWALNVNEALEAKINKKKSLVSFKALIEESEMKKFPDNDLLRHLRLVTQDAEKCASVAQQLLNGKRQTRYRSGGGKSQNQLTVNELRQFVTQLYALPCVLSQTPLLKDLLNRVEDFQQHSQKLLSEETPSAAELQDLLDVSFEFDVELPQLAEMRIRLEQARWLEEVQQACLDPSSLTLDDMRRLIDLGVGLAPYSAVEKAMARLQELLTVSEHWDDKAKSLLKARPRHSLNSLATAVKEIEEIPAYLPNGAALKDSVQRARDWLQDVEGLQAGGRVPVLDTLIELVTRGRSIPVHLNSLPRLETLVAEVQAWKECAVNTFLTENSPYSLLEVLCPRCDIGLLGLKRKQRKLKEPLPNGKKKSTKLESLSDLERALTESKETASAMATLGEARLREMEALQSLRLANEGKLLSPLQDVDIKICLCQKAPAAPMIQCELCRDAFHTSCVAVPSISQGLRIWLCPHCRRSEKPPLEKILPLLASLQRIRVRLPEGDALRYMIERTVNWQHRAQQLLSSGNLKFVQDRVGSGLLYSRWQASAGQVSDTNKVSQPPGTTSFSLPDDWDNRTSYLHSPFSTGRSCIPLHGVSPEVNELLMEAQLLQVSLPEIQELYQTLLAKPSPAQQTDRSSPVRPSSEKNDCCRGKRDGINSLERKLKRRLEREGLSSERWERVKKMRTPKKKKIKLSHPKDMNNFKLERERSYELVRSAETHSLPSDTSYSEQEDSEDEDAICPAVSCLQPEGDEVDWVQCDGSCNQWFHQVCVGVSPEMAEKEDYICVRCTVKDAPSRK
Assay: Primary screen for KDM5B Histone Demethylases FDH-coupled qHTS; note: nearly all actives have a fitted effect of over 70% in size
Conditions: FDH-coupled NADH fluorescence (FDH is formaldehyde dehydrogenase); series mostly up to 57.7 µM
In short: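 KDM5BΔAP (200 nM final) in 50 mM HEPES pH 7.5, 0.01% Tween-20 was preincubated 10 min at RT with compound over a concentration range. Substrate mix (H3K4me3 12.5 µM, α-KG 25 µM, Fe²⁺, ascorbate, NAD⁺, FDH) was added, and NADH fluorescence change over 30 min gave dose-response curves.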
Potency is the fitted concentration of half-maximal effect; tags give direction and shape of the fitted curve.

Row | SMILES | Potency
1 | CCCCCNc1ncnc2c1CN(c1ccc(Cl)cc1)C(=O)CN2C | inconclusive: 15.8 µM [inhibitor, single point]
2 | CCc1ccc(-c2cc3c(=O)[nH]nc(SCC(=O)NC(C)CC)n3n2)cc1 (centres undefined) | inactive
3 | COc1ccc(NC(=O)N2CCOc3ccc(CN4CCc5ccccc5C4)cc3C2)cc1 | inconclusive: 15.8 µM [inhibitor, single point]
4 | COc1ccccc1C(=O)N1CCC2(CC1)CC(=O)c1ccccc1O2 | active: 31.6 µM
5 | CCCc1ccc(NC(=O)c2nccnc2N)cc1 | inactive
6 | CC(C)c1noc([C@@H]2Cc3nc[nH]c3CN2C(=O)Nc2ccc(Cl)cc2)n1 | inconclusive: 28.2 µM [inhibitor, single point]
7 | COc1ccc(Cl)cc1C(=O)N1CCCN(c2cc(-c3ccccc3)[nH]n2)CC1 | inactive
8 | CCCCNC(=O)c1cccc(N)c1 | inconclusive: 28.2 µM [inhibitor, single point]
9 | O=C(Cc1ccsc1)NCc1nnc2ccc(-c3ccccc3)nn12 | inconclusive: 22.4 µM [inhibitor, partial curve, poor fit]
10 | CNc1cc(C)nc(N2CCN(Cc3ccc(C)cc3)C(CCO)C2)n1 (centres undefined) | inactive
11 | Cc1ccc(-c2nnc(Nc3ccc(Br)cc3)c3ccccc23)cc1S(=O)(=O)NCc1nc2ccccc2[nH]1 | inconclusive: 25.1 µM [inhibitor, partial curve, poor fit]
12 | Cc1ccc(C(=O)COC(=O)c2cccc(C)c2C)cc1 | inactive
13 | O=C1NC(=NC2CCCCC2)C2(CCN(CC3CCCCC3)C2)N1c1cc(F)cc(F)c1 (centres undefined) | inactive
14 | Cc1cccn2c(=O)c(C(=O)NCCc3ccc(Cl)cc3)cnc12 | inconclusive: 5.62 µM [inhibitor, partial curve, poor fit]
15 | CCCCNC(=O)CCc1cc2cc(OC)ccc2[nH]c1=O | inconclusive: 28.2 µM [inhibitor, partial curve, poor fit]
16 | O=C(c1cc2cc(Br)ccc2o1)c1ccc(F)cc1F | inactive
17 | CCCNS(=O)(=O)c1cc(-c2nnc3c4ccccc4c(C)nn23)ccc1OC | inconclusive: 2.24 µM [inhibitor, partial curve, poor fit]
18 | Cc1ccc(Cl)cc1NC(=O)c1cccc(NC(=O)N2CCSc3ncccc32)c1 | inconclusive: 15.8 µM [inhibitor, partial curve, poor fit]
19 | CCOc1ccc(NC(=O)C2CCCN(c3nnc(-n4c(C)ccc4C)s3)C2)cc1 (centres undefined) | inconclusive: 15.8 µM [inhibitor, partial curve, poor fit]
